# Measured values as given in the supplement of paper PMC8728848.
# The other results are listed elsewhere or left out.
# B1: CTLY 1 (Homo sapiens), Q6ZS10 (protein)
# chain: AITCPEGWLPFEGKCYYFSPSTKSWDEARMFCQENYSHLVIINSFAEHNFVAKAHGSPRVYWLGLNDRAQEGDWRWLDGSPVTLSFWEPEEPNNIHDEDCATMNKGGTWNDLSCYKTTYWICERKGLNDIFEAQKIEWHE
# Assays:
# Experiment in all cases: glycan array binding signal (z-score within array); higher = stronger binding
# Settings in all cases: glycan notation: IUPAC condensed, linker removed
# [1] = biological target: GalNAc(b1-3)Gal(a1-4)Gal(b1-4)GlcNAc
# How it was run: (§1)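 The binding signal is a Z-score computed within each array and averaged over linkers. Arrays of the same protein sequence at different concentrations or buffers were also averaged together. Data originate from 3228 arrays in the Consortium for Functional Glycomics database, kept only where the protein sequence was available.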
# [2] = biological target: GalNAc(b1-3)Gal(a1-4)Gal(b1-4)GlcNAc(b1-3)Gal(b1-4)Glc
# How it was run: as §1
# [3] = biological target: GalNAc(b1-3)Gal(a1-6)Gal(b1-4)Glc
# How it was run: as §1
# GalNAc(b1-3)GalNAc = biological target: GalNAc(b1-3)GalNAc
# How it was run: as §1
# GalNAc(b1-4)GlcNAc = biological target: GalNAc(b1-4)GlcNAc
# How it was run: as §1
# [4] = biological target: GalNAc(b1-4)GlcNAc(b1-2)Man(a1-3)[GalNAc(b1-4)GlcNAc(b1-2)Man(a1-6)]Man(b1-4)GlcNAc(b1-4)GlcNAc
# How it was run: as §1
# Glc(a1-4)Glc = biological target: Glc(a1-4)Glc
# How it was run: as §1
# Glc(a1-6)Glc(a1-6)Glc = biological target: Glc(a1-6)Glc(a1-6)Glc
# How it was run: as §1
# Glc(b1-4)Glc = biological target: Glc(b1-4)Glc
# How it was run: as §1
# Glc(b1-6)Glc = biological target: Glc(b1-6)Glc
# How it was run: as §1
# GlcA(b1-3)Gal = biological target: GlcA(b1-3)Gal
# How it was run: as §1
# GlcA(b1-3)GlcNAc = biological target: GlcA(b1-3)GlcNAc
# How it was run: as §1
# GlcA(b1-6)Gal = biological target: GlcA(b1-6)Gal
# How it was run: as §1
# [5] = biological target: GlcNAc(a1-3)Gal(b1-4)GlcNAc
# How it was run: as §1
# [6] = biological target: GlcNAc(a1-4)Gal(b1-3)GlcNAc
# How it was run: as §1
# [7] = biological target: GlcNAc(a1-4)Gal(b1-4)GalNAc
# How it was run: as §1
# [8] = biological target: GlcNAc(a1-4)Gal(b1-4)GlcNAc
# How it was run: as §1
# [9] = biological target: GlcNAc(a1-4)Gal(b1-4)GlcNAc(b1-3)Gal(b1-4)Glc
# How it was run: as §1
# [10] = biological target: GlcNAc(a1-4)Gal(b1-4)GlcNAc(b1-3)Gal(b1-4)GlcNAc
# How it was run: as §1
# [11] = biological target: GlcNAc(a1-4)Gal(b1-4)GlcNAc(b1-3)Gal(b1-4)GlcNAc(b1-3)Gal(b1-4)GlcNAc
# How it was run: as §1
# [12] = biological target: GlcNAc(a1-4)Gal(b1-4)GlcNAc(b1-3)Gal(b1-4)[Fuc(a1-3)]GlcNAc(b1-3)Gal(b1-4)[Fuc(a1-3)]GlcNAc
# How it was run: as §1
# [13] = biological target: GlcNAc(a1-6)Gal(b1-4)GlcNAc
# How it was run: as §1
# [14] = biological target: GlcNAc(b1-2)Gal(b1-3)GalNAc
# How it was run: as §1
# [15] = biological target: GlcNAc(b1-2)Man(a1-3)[GlcNAc(b1-2)Man(a1-6)]Man(b1-4)GlcNAc(b1-4)GlcNAc
# How it was run: as §1
# [16] = biological target: GlcNAc(b1-2)Man(a1-3)[GlcNAc(b1-2)Man(a1-6)]Man(b1-4)GlcNAc(b1-4)[Fuc(a1-6)]GlcNAc
# How it was run: as §1
# [17] = biological target: GlcNAc(b1-2)[GlcNAc(b1-4)]Man(a1-3)[GlcNAc(b1-2)Man(a1-6)]Man(b1-4)GlcNAc(b1-4)GlcNAc
# How it was run: as §1
# GlcNAc(b1-3)Gal = biological target: GlcNAc(b1-3)Gal
# How it was run: as §1
# [18] = biological target: GlcNAc(b1-3)Gal(b1-3)GalNAc
# How it was run: as §1
# GlcNAc(b1-3)Gal(b1-4)Glc = biological target: GlcNAc(b1-3)Gal(b1-4)Glc
# How it was run: as §1
# [19] = biological target: GlcNAc(b1-3)Gal(b1-4)GlcNAc
# How it was run: as §1
# [20] = biological target: GlcNAc(b1-3)Gal(b1-4)GlcNAc(b1-3)Gal(b1-4)GlcNAc
# How it was run: as §1
# GlcNAc(b1-3)GalNAc = biological target: GlcNAc(b1-3)GalNAc
# How it was run: as §1
# GlcNAc(b1-3)Man = biological target: GlcNAc(b1-3)Man
# How it was run: as §1
# [21] = biological target: GlcNAc(b1-3)[GlcNAc(b1-4)][GlcNAc(b1-6)]GlcNAc
# How it was run: as §1
# [22] = biological target: GlcNAc(b1-3)[GlcNAc(b1-6)]Gal(b1-4)GlcNAc
# How it was run: as §1
# [23] = biological target: GlcNAc(b1-3)[GlcNAc(b1-6)]GalNAc
# How it was run: as §1
# [24] = biological target: GlcNAc(b1-4)Gal(b1-4)GlcNAc
# How it was run: as §1
# GlcNAc(b1-4)GlcNAc = biological target: GlcNAc(b1-4)GlcNAc
# How it was run: as §1
# [25] = biological target: GlcNAc(b1-4)GlcNAc(b1-4)GlcNAc
# How it was run: as §1
# [26] = biological target: GlcNAc(b1-4)GlcNAc(b1-4)GlcNAc(b1-4)GlcNAc(b1-4)GlcNAc
# How it was run: as §1
# [27] = biological target: GlcNAc(b1-4)GlcNAc(b1-4)GlcNAc(b1-4)GlcNAc(b1-4)GlcNAc(b1-4)GlcNAc
# How it was run: as §1
# [28] = biological target: GlcNAc(b1-4)[GlcNAc(b1-6)]GalNAc
# How it was run: as §1
# [29] = biological target: GlcNAc(b1-6)Gal(b1-4)GlcNAc
# How it was run: as §1
# GlcNAc(b1-6)GalNAc = biological target: GlcNAc(b1-6)GalNAc
# How it was run: as §1
# GlcNAc3Prop(b1-4)GlcNAc = biological target: GlcNAc3Prop(b1-4)GlcNAc
# How it was run: as §1
binder,measurement,setting,value
B1,glycan array binding signal (z-score),[1],-0.243
same,glycan array binding signal (z-score),[2],-0.231
same,glycan array binding signal (z-score),[3],-0.235
same,glycan array binding signal (z-score),GalNAc(b1-3)GalNAc,-0.24
same,glycan array binding signal (z-score),GalNAc(b1-4)GlcNAc,-0.242
same,glycan array binding signal (z-score),[4],-0.235
same,glycan array binding signal (z-score),Glc(a1-4)Glc,-0.243
same,glycan array binding signal (z-score),Glc(a1-6)Glc(a1-6)Glc,-0.243
same,glycan array binding signal (z-score),Glc(b1-4)Glc,-0.243
same,glycan array binding signal (z-score),Glc(b1-6)Glc,-0.233
same,glycan array binding signal (z-score),GlcA(b1-3)Gal,-0.248
same,glycan array binding signal (z-score),GlcA(b1-3)GlcNAc,-0.229
same,glycan array binding signal (z-score),GlcA(b1-6)Gal,-0.241
same,glycan array binding signal (z-score),[5],-0.236
same,glycan array binding signal (z-score),[6],-0.227
same,glycan array binding signal (z-score),[7],-0.228
same,glycan array binding signal (z-score),[8],-0.232
same,glycan array binding signal (z-score),[9],-0.237
same,glycan array binding signal (z-score),[10],-0.241
same,glycan array binding signal (z-score),[11],-0.229
same,glycan array binding signal (z-score),[12],-0.095
same,glycan array binding signal (z-score),[13],-0.237
same,glycan array binding signal (z-score),[14],-0.012
same,glycan array binding signal (z-score),[15],-0.058
same,glycan array binding signal (z-score),[16],-0.209
same,glycan array binding signal (z-score),[17],1.24
same,glycan array binding signal (z-score),GlcNAc(b1-3)Gal,-0.238
same,glycan array binding signal (z-score),[18],-0.205
same,glycan array binding signal (z-score),GlcNAc(b1-3)Gal(b1-4)Glc,-0.251
same,glycan array binding signal (z-score),[19],-0.237
same,glycan array binding signal (z-score),[20],-0.237
same,glycan array binding signal (z-score),GlcNAc(b1-3)GalNAc,-0.242
same,glycan array binding signal (z-score),GlcNAc(b1-3)Man,-0.244
same,glycan array binding signal (z-score),[21],0.951
same,glycan array binding signal (z-score),[22],0.14
same,glycan array binding signal (z-score),[23],-0.066
same,glycan array binding signal (z-score),[24],-0.212
same,glycan array binding signal (z-score),GlcNAc(b1-4)GlcNAc,-0.239
same,glycan array binding signal (z-score),[25],-0.218
same,glycan array binding signal (z-score),[26],-0.241
same,glycan array binding signal (z-score),[27],-0.242
same,glycan array binding signal (z-score),[28],0.086
same,glycan array binding signal (z-score),[29],-0.229
same,glycan array binding signal (z-score),GlcNAc(b1-6)GalNAc,-0.218
same,glycan array binding signal (z-score),GlcNAc3Prop(b1-4)GlcNAc,-0.085
